In PubChem BioAssay AID588453 (National Center for Advancing Translational Sciences (NCATS), 2011):
In all, about 390,000 compounds went through this assay and about 4,000 (1%) were called active. The inconclusive results got no clear call from the source; some entries with a clear call stand among them for comparison. Calls come from the whole dose curve; as a rule, active = well fitted inhibition curve with a large enough effect; inconclusive = small, poorly fitted or top-dose-only effect; inactive = no such curve, though single readings can be large or run the other way. A potency beside an inconclusive call is a rough fit, not a confirmed value.

Molecular target: Thioredoxin reductase 1, cytoplasmic (Rattus norvegicus) (UniProt O89049)
UniProt O89049, sequence (O89049 whole entry, looked up): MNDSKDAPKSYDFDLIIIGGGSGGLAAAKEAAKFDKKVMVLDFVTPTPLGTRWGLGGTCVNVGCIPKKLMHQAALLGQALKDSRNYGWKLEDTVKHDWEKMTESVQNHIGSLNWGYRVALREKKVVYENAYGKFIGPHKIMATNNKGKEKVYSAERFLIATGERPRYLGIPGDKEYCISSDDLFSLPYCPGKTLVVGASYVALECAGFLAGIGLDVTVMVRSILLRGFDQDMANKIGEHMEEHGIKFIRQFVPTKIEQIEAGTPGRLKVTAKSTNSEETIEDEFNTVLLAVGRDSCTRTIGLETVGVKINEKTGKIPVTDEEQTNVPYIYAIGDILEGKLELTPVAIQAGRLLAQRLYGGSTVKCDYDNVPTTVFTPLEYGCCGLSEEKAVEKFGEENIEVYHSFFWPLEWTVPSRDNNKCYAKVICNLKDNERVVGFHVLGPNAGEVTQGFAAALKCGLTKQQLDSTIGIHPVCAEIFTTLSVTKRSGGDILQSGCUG
Assay: qHTS Assay for Inhibitors of Mammalian Selenoprotein Thioredoxin Reductase 1 (TrxR1): qHTS; note: nearly all actives have a fitted effect of over 65% in size
Settings: recombinant rTrxR1, NADPH fluorescence consumption, selenite substrate; series mostly up to 114 µM; activity change, negative = inhibition: at the top concentration
Text: The selenoprotein thioredoxin reductase (TrxR; EC 1.8.1.9) is a FAD containing homodimeric pyridine nucleotide-disulfide oxidoreductase with many cellular roles. Together with NADPH and its prime substrate thioredoxin (Trx), the enzyme forms the core of the Trx system. The mammalian Trx system exerts a wide spectrum of functions including redox regulation, antioxidant defense, regulation of transcription factors as well as support of cell growth and replication. Many of these functions involve the reduction of Trx, which may subsequently reduce a number of different substrates including ribonucleotide reductase, peroxiredoxins or NFkB. Mammalian TrxR itself also has a broad substrate specificity, reducing both protein and non-protein substrates, including low molecular weight compounds such as dehydroascorbate, lipoic acid, ubiquinone, and juglone. In addition, several drugs in clinical use for anticancer treatment are indeed known to target TrxR1.
This BioAssay is a validation of an NADPH fluorescence-based, dual-purpose qHTS rTrxR1 assay designed to find potential inhibitors and substrates of rTrxR1. For this particular BioAssay, actives are potential inhibitors. See related BioAssay for substrate data deposition.
NIH Molecular Libraries Probe Production Network [MLPCN]
NIH Chemical Genomics Center [NCGC]
Assay Provider: Elias Arner, Karolinska Institute
Assay protocol: 2 uL of reagents (buffer in column 4 as negative control and 90 nM rTrxR1 in columns 1-3 and 5-48) were dispensed into Greiner black solid-bottom 1,536-well assay plates, followed by 1 uL of NADPH (400 uM final concentration) to each well. The plates were centrifuged at 1000 rpm for 15 seconds and subsequently incubated for 5 min at room temperature (~22 deg C) to allow for rTrxR1 reduction. Compounds (23 nL) were then transferred via Kalypsys pin tool equipped with 1536-pin array (10 nL slotted pins, V&P Scientific, San Diego, CA). In addition, a duplicate 2-fold serial dilution of the control compounds auranofin, a known gold-based TrxR1 inhibitor, and juglone (5-hydroxy-1,4-naphthoquinone), a natural TrxR1 substrate, were pin-transferred to columns 2 and 3, respectively. After incubation for 15 min at room temperature (~22 deg C), 1 uL of selenite (400 uM final concentration) were dispensed to each well. The plate was immediately transferred to a ViewLux high-throughput CCD imager (PerkinElmer), wherein kinetic measurements of NADPH fluorescence (Ex 340 nm, Em 450 nm) were acquired (8 minute kinetic read, see Table 1). Read 1 was utilized to assess the capacity of a compound to serve as an rTrxR1 substrate, i.e. a decrease in NADPH fluorescence compared to the no-compound background is an indication of a substrate behavior for that particular compound. For inhibitory activity of a compound, delta values, computed as the difference in fluorescence intensity between the first and last reads of an 8-minute time kinetic window, were used. All reagents were diluted in an assay buffer consisting of 50 mM Tris-HCl, pH 7.5, 2 mM EDTA, and 0.01% Tween-20.
Throughout the screen, reagent bottle and all liquid lines were made light-tight to minimize reagent degradation. All screening operations were performed on a fully integrated robotic system (Kalypsys, San Diego, CA) containing one RX-130 and two RX-90 anthropomorphic robotic arms (Staubli, Duncan, SC). Library plates were screened starting from the lowest and proceeding to the highest concentration, and a 'double-pinning' step of the highest concentration was required to access higher concentrations of compounds. Vehicle-only plates, with DMSO being pin-transferred to the columns 5-48, were inserted uniformly at the beginning and the end of each library in order to monitor and record any shifts in the background, which can be affected by reagent dispensers or loss in enzyme activity over time. […]
% is set by controls: 0 for no effect and ±100 for the full control effect; potency is the fitted concentration of half-maximal effect; tags give direction and shape of the fitted curve.

Row | SMILES | Potency | activity change, negative = inhibition
1 | O=C(CCN1C(=O)C2CC=C(Cl)CC2C1=O)N1CCCCC1 (stereo not drawn) | inconclusive: 56.2 µM [inhibitor, single point] | 
2 | O=C(CCS(=O)(=O)c1cccc2nonc12)N1CCCc2ccccc21 | inconclusive: 50.1 µM [inhibitor, partial curve] | 
3 | Nc1nc(CN2CCOCC2)cs1 | inconclusive: 56.2 µM [inhibitor, partial curve] | 
4 | COc1ccc(-c2nnc(-c3cccnc3)o2)cc1OC | inconclusive: 70.8 µM [inhibitor, single point] | 
5 | COC(=O)[C@H]1[C@H]2C[C@H]3c4[nH]c5ccccc5c4CCN3C[C@H]2CC[C@@H]1O | inconclusive: 8.44 µM [inhibitor, single point] | 
6 | O=C(Cn1c(=O)nc(-c2ccccc2)c2ccccc21)Nc1ccc(Cl)c(C(F)(F)F)c1 |  | inactive: 15.8% [at 57.1 µM]
7 | Cc1nn(-c2ccccc2)c(Cl)c1CN(C(=O)CCl)c1ccc(Cl)cc1 | active: 22.4 µM | 
8 | Cc1[nH]c2ccccc2c1C(c1ccccn1)N1CCC(C(N)=O)CC1 (stereo not drawn) | active: 1.58 µM | 
9 | O=C(O)c1ccc(OCc2ccc(C(=O)O)o2)cc1 |  | inactive: -5.58%
10 | C=CCN1C(=O)C(Cc2ccc(OC)cc2)S/C1=N/N=C/c1ccco1 (stereo not drawn) | inconclusive: 70.8 µM [inhibitor, partial curve, poor fit] | 
11 | C(=N\C(/N=C/c1ccco1)c1ccco1)/c1ccco1 | inconclusive: 22.4 µM [inhibitor, partial curve, poor fit] | 
12 | O=C1C(NS(=O)(=O)c2cccs2)=C(N2CCN(c3ccccc3)CC2)C(=O)c2ccccc21 | inconclusive: 89.1 µM [inhibitor, single point] | 
13 | CCOc1ccc(-n2c(CCC(=O)O)ccc2-c2ccc(Br)cc2)cc1 | inconclusive: 79.4 µM [inhibitor, partial curve, poor fit] | 
14 | COc1ccc2c(c1)C1=NN(/C(C)=C\C(C)=O)C(c3ccccc3)C1CC2 (stereo not drawn) | inconclusive: 22.4 µM [inhibitor, single point] | 
15 | COC(=O)c1ccc(OC(=O)C2CC(=O)N(c3cccc(C)c3)C2)cc1 (stereo not drawn) | inconclusive: 15.8 µM [inhibitor, partial curve] | 
16 | COc1ccc(-c2cc(C)no2)cc1S(=O)(=O)N1CCCN(Cc2ccccc2Cl)C1 | inconclusive: 89.1 µM [inhibitor, single point] | 
17 | CC(C)(C)c1cc(CCC(=O)N2CCNCC2)c(C(C)(C)C)cc1O | inconclusive: 50.1 µM [inhibitor, partial curve] | 
18 | O=C(O)Cc1ccc(NC(=O)c2ccc3c(c2)C(=O)N(Cc2ccco2)C3=O)cc1 | inconclusive: 70.8 µM [inhibitor, single point] | 
